Patent US10299477B2 (priority 2015, dated 2019)

Key:
Type in all cases: in vivo
Botrytis cinerea = assay: Test Example B: Gray mold on tomato; conditions: for Test B (control value class): gray mold on tomato, Botrytis cinerea, 250 ppm spray; for Test B (control value class, gray mold on tomato): in vivo
Source text: [Test Example B] Gray Mold on Tomato
Seeds of a test plant (tomato variety: Oogata Fukuju) were planted followed by cultivating until three to five first leaves (true leaves) appeared.

Alternaia brassicicola = assay: Test Example C: Alternaria sooty spot on cabbage; conditions: for Test C (control value class): Alternaria sooty spot on cabbage, 250 ppm spray; for Test C (control value class, Alternaria sooty spot on cabbage): in vivo
Source text: [Test Example C] Alternaria Sooty Spot on Cabbage
Seeds of a test plant (cabbage variety: Shikidori) were planted followed by cultivating until the cotyledons extended.

[1] = system: Blumeria graminis f sp. hordei; assay: Test Example D: Powdery mildew on barley; conditions: for Test D (control value class): powdery mildew on barley, 250 ppm spray; for Test D (control value class, powdery mildew on barley): in vivo
Source text: [Test Example D] Powdery Mildew on Barley
After the sprayed dilutions were dried, conidia of Blumeria graminis f sp. hordei were inoculated to the plants by shaking off.

Puccinia recondita = assay: Test Example E: Brown rust on wheat; conditions: for Test E (control value class): brown rust on wheat, Puccinia recondita, 250 ppm spray; for Test E (control value class, brown rust on wheat): in vivo
Source text: [Test Example E] Brown Rust on Wheat

Plasmopara viticola = assay: Test Example G: Downy mildew on vine; conditions: for Test G (control value class): downy mildew on vine, Plasmopara viticola, 250 ppm spray, 7-10 days after inoculation; for Test G (control value class, downy mildew on vine): 250 ppm, sprayed 2.5 ml/pot before inoculation, evaluated 7-10 days after inoculation
Source text: [Test Example G] Downy Mildew on Vine
Seeds of a test plant (grape variety: Neomuscat) were planted followed by cultivating until three to four first leaves appeared. […] After the sprayed dilutions were dried, a zoosporangia suspension (1-2×10^4 zoosporangia/ml) of Plasmopara viticola was inoculated to the plants by spraying.

SMILES	Test B (control value class) (Botrytis cinerea)	Test C (control value class) (Alternaia brassicicola)	Test D (control value class) [1]	Test E (control value class) (Puccinia recondita)	Test G (control value class) (Plasmopara viticola)	Test B (control value class, gray mold on tomato) (Botrytis cinerea)	Test C (control value class, Alternaria sooty spot on cabbage) (Alternaia brassicicola)	Test D (control value class, powdery mildew on barley) [1]	Test E (control value class, brown rust on wheat) (Puccinia recondita)	Test G (control value class, downy mildew on vine) (Plasmopara viticola)
Cn1c(-c2c(F)cc(F)cc2F)c(-c2ccccc2F)cc(Br)c1=O [Compound 545]	H (H shows more than 50% of control values)	H (H shows more than 50% of control values)	H (H shows more than 50% of control values)	H (H shows more than 50% of control values)	L (L shows 50% or less of control values)					
CCn1c(-c2c(F)cc(OC)cc2F)c(-c2cc(F)cc(F)c2F)cc(Cl)c1=O [Compound 546]	H (H shows more than 50% of control values)	H (H shows more than 50% of control values)	H (H shows more than 50% of control values)	H (H shows more than 50% of control values)	L (L shows 50% or less of control values)					
CCOc1cc(F)c(-c2c(-c3cc(F)ccc3Cl)cc(Cl)c(=O)n2CC)c(F)c1 [Compound 547]	H (H shows more than 50% of control values)	H (H shows more than 50% of control values)	H (H shows more than 50% of control values)	H (H shows more than 50% of control values)	L (L shows 50% or less of control values)					
CCn1c(-c2c(F)cc(OC)cc2F)c(-c2cc(F)cc(F)c2F)ccc1=O [Compound 548]	H (H shows more than 50% of control values)	H (H shows more than 50% of control values)	H (H shows more than 50% of control values)	H (H shows more than 50% of control values)	L (L shows 50% or less of control values)					
COc1cc(F)c(-c2c(-c3cc(F)cc(F)c3F)cc(Cl)c(=O)n2C)c(F)c1 [Compound 549]	H (H shows more than 50% of control values)	H (H shows more than 50% of control values)	H (H shows more than 50% of control values)	H (H shows more than 50% of control values)	L (L shows 50% or less of control values)					
COc1cc(F)c(-c2c(-c3cc(F)cc(F)c3F)ccc(=O)n2C)c(F)c1 [Compound 550]	H (H shows more than 50% of control values)	H (H shows more than 50% of control values)	H (H shows more than 50% of control values)	H (H shows more than 50% of control values)	H (H shows more than 50% of control values)					
CCn1c(-c2c(F)cccc2F)c(-c2cc(F)cc(F)c2Cl)ccc1=O [Compound 551]	H (H shows more than 50% of control values)	H (H shows more than 50% of control values)	H (H shows more than 50% of control values)	H (H shows more than 50% of control values)	L (L shows 50% or less of control values)					
CCn1c(-c2c(F)cccc2F)c(-c2cc(F)cc(F)c2Cl)cc(Cl)c1=O [Compound 552]	H (H shows more than 50% of control values)	H (H shows more than 50% of control values)	H (H shows more than 50% of control values)	H (H shows more than 50% of control values)	L (L shows 50% or less of control values)					
Cn1c(-c2c(F)cccc2F)c(-c2cc(F)cc(F)c2Cl)ccc1=O [Compound 553]	H (H shows more than 50% of control values)	H (H shows more than 50% of control values)	H (H shows more than 50% of control values)	H (H shows more than 50% of control values)	H (H shows more than 50% of control values)					
Cn1c(-c2c(F)cccc2F)c(-c2cc(F)cc(F)c2Cl)cc(Cl)c1=O [Compound 554]	H (H shows more than 50% of control values)	H (H shows more than 50% of control values)	H (H shows more than 50% of control values)	H (H shows more than 50% of control values)	L (L shows 50% or less of control values)					
O=c1ccc(-c2cc(F)cc(F)c2Cl)c(-c2c(F)cccc2F)n1CC(F)F [Compound 555]	H (H shows more than 50% of control values)	H (H shows more than 50% of control values)	H (H shows more than 50% of control values)	H (H shows more than 50% of control values)	L (L shows 50% or less of control values)					
O=c1c(Cl)cc(-c2cc(F)cc(F)c2Cl)c(-c2c(F)cccc2F)n1CC(F)F [Compound 556]	H (H shows more than 50% of control values)	H (H shows more than 50% of control values)	H (H shows more than 50% of control values)	H (H shows more than 50% of control values)	L (L shows 50% or less of control values)					
CCn1c(-c2c(F)cc(F)cc2F)c(-c2cccc(F)c2F)ccc1=O [Compound 558]	H (H shows more than 50% of control values)	H (H shows more than 50% of control values)	H (H shows more than 50% of control values)	H (H shows more than 50% of control values)	H (H shows more than 50% of control values)					
Cn1c(-c2c(F)cc(F)cc2F)c(-c2cccc(F)c2F)cc(Cl)c1=O [Compound 559]	H (H shows more than 50% of control values)	H (H shows more than 50% of control values)	H (H shows more than 50% of control values)	H (H shows more than 50% of control values)	L (L shows 50% or less of control values)					
Cn1c(-c2c(F)cc(F)cc2F)c(-c2cccc(F)c2F)cc(Br)c1=O [Compound 560]	H (H shows more than 50% of control values)	H (H shows more than 50% of control values)	H (H shows more than 50% of control values)	H (H shows more than 50% of control values)	L (L shows 50% or less of control values)					
COc1cc(F)c(-c2c(-c3cccc(F)c3F)ccc(=O)n2C)c(F)c1 [Compound 561]						H (H shows more than 50% of control values)	H (H shows more than 50% of control values)	H (H shows more than 50% of control values)	H (H shows more than 50% of control values)	H (H shows more than 50% of control values)
COc1cc(F)c(-c2c(-c3cccc(F)c3F)cc(Cl)c(=O)n2C)c(F)c1 [Compound 562]						H (H shows more than 50% of control values)	H (H shows more than 50% of control values)	H (H shows more than 50% of control values)	H (H shows more than 50% of control values)	L (L shows 50% or less of control values)
Cc1cc(-c2cccc(F)c2F)c(-c2c(F)cc(F)cc2F)n(C)c1=O [Compound 564]						H (H shows more than 50% of control values)	H (H shows more than 50% of control values)	H (H shows more than 50% of control values)	H (H shows more than 50% of control values)	H (H shows more than 50% of control values)
COc1cc(F)c(-c2c(-c3cccc(F)c3F)cc(C)c(=O)n2C)c(F)c1 [Compound 565]						H (H shows more than 50% of control values)	H (H shows more than 50% of control values)	H (H shows more than 50% of control values)	H (H shows more than 50% of control values)	H (H shows more than 50% of control values)
CCn1c(-c2c(F)cc(F)cc2F)c(-c2cccc(F)c2F)cc(Cl)c1=O [Compound 566]						H (H shows more than 50% of control values)	H (H shows more than 50% of control values)	H (H shows more than 50% of control values)	H (H shows more than 50% of control values)	H (H shows more than 50% of control values)
